Data as given in the supplement of paper PMC10681739.
± gives the standard deviation of the averaged measurements. The full ranking holds about 4,000 sequences; the median of “arbitrary fluorescence units” is about 830, and the highest 2% start at about 6,500. This part holds few or none of the hits.

Target: RUNX1 (UniProt Q01196)
Assay: RUNX1 binding intensity (PBM fluorescence), RUNX1 alone (arbitrary fluorescence units); higher = stronger binding
Conditions: RUNX1 concentration 2 nM; ETS1 concentration 0 nM
Procedure: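 gcPBM on 36-bp genomic-derived probes (partner site mutated) containing one RUNX1 site and no ETS1 site. Recombinant human RUNX1 (2 nM) was incubated alone or with ETS1 (25 nM) and detected by anti-RUNX1 antibody fluorescence. Values are medians over 4 replicate spots (not normalised). The probes sit in constant array flanks that are not printed.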
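Also: Full-length recombinant human RUNX1 bound to double-stranded DNA microarray spots, detected with an Alexa488-labelled secondary antibody after the anti-RUNX1 primary, read as scanned spot fluorescence.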

UniProt Q01196, sequence (Q01196 whole entry): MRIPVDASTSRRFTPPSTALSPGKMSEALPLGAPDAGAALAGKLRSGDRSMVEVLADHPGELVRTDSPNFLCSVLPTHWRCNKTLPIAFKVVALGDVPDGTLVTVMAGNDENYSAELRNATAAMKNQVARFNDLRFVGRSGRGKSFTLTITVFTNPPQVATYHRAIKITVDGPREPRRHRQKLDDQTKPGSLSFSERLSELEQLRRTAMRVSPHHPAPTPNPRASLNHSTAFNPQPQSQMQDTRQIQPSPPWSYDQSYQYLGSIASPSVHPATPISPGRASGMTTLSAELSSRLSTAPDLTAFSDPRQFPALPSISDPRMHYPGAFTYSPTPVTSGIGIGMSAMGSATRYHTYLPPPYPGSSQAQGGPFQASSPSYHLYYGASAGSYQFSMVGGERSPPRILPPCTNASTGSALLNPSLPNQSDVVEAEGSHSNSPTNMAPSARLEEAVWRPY

Sequence | RUNX1 binding intensity
CAGAACGGTCCCTGGAACACTGCGGTTCCCGCCTGG | 874
CATTCATGTGGCTTATAGGCACACCCTGCCTGCCTA | 824
CAACGCTTGCCGACCGCCAGCAGGAGGTGGTGGGCG | 755
AGCGACCGCTGCCGCTGCCGTGGATGGAGACGCTGC | 677
TTCTGACTCACCTGCCTGTAGGTTGGTTTTCTGCAT | 770
GGAGAAATAGACCGCGCTTTGTGCGGAGGCTGTCAG | 733
CCGAGTGGCGGTTGTTTCAAGATGGCGGAGGTGGCA | 789.5 ± 6.2
ATGCAGAAAACCAACCTACAGGCAGGTGAGTCAGAA | 675
GACTCCAGTTCCCGTCGGCTCGCGGTGGGAGCGCCG | 875
GCGCCCCGCTTACGGGGCCGCCCTAAACCGCGGCCG | 1390
TCTTTGTGGTGGAGGTGGCAGGTCTTTCTTCAGCTG | 1080
GCGCAAGCAGCAAGCGTTTGCGGTGATCCCGGCGAC | 805
GCGGGCGAAAGTGCCGAGGTTGTACCGCGGCGCTGG | 664
TTTCTGTGGCTGGACAGTTGGAGAAATGAGGACGTT | 748
AACCCAGAGCTACCACACAGCACAGCATGCAGACAA | 1040
AGCTGTTCCACCACGCTCGGCGTGGGCCGCGGTGGG | 805
TGCCTGCGGCCTGGGCTGGGTGTAGCCCCTGAACCT | 710
TACACACCACAAACTCCTCACAGCCTCACTTGCTGT | 1530

Sequence | RUNX1 binding intensity
TTTGATTGCCTGTCTCCATGTTGTGGTCAAGATTGC | 1080
CCCAGAGGCAGCCCCATGCCAAGACCGCCAACGCCA | 863
GCGGAGGCGGCAGTCGTGCTGCTGCTGACCACGGCT | 676
GAGCCACCTGAAACGGAGCTGCGGCCGCGCCCCGCC | 815
GCTTACGTCACGTTCGGCGCCTGCGGCCCACCCCTC | 919
CAGGTGTCTGTGGCTGGGAGGAGACCCAGAGTCAGG | 718
TGAAGGCAATTGACGAACACGTGACGCGGTCGGGCG | 721
CCGACACGATGGGTGAGCTGTTGTGGCCGGTTTAAG | 721
GCTCAACTCACCCACAGAACATGAGGACGTTATACA | 1150
GGCGTGCTGCGGTGCTGTCATTGCCTGGTGCCTTTT | 808
GGGCAGGTGCGGCTGCCGAGGAGAGTGGTCACCTCG | 700
GGCCGACGGGAATTGTAGTCCGGCCTGCGGTCCGGG | 716
TTGTGGTAGGGAAATCCACTTACCCCCTCCTCATGT | 808
CTCACCGCGAAGCCCAGGAGCGGCCAGCAAATGAGC | 770
GAAGAGTTGTGGGATGAGGGCTCGCGGACGATAAAA | 739
GGAGTGAGGAGCAAGCGGAGGCGAGACCGCGCTCAA | 765
TTGCACTCTGCGGGGACGGGAGAAGGAACGAAAAAT | 805
